About 1,100 (0.37%) of roughly 300,000 compounds were called active. The inconclusive results got no clear call from the source; some entries with a clear call stand among them for comparison.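 Rule for the calls: active = inhibition past about -25% in most replicates, and total fluorescence under double the plate's negative control median (limit read from the data); inconclusive = replicates evenly split on the limit, or fluorescence at least double controls; inactive = too little inhibition in most replicates.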 More than one record can exist for a structure, and the calls need not agree.
The molecules below were run against Zinc finger protein mex-5 (Caenorhabditis elegans) (UniProt Q9XUB2) (assay: MEX-5 zinc finger RNA-binding disruptors – biochemical, C. elegans, fluorescence polarization, MLPCN library, primary screen (AID 1832;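 note: 0% = DMSO and -100% = 5 µM competing unlabeled TCR2 RNA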)). Conditions: MEX-5/FITC-TCR2 RNA binding, at 10 µM, hits give low values.
Sequence of UniProt Q9XUB2 (Q9XUB2 whole entry, looked up): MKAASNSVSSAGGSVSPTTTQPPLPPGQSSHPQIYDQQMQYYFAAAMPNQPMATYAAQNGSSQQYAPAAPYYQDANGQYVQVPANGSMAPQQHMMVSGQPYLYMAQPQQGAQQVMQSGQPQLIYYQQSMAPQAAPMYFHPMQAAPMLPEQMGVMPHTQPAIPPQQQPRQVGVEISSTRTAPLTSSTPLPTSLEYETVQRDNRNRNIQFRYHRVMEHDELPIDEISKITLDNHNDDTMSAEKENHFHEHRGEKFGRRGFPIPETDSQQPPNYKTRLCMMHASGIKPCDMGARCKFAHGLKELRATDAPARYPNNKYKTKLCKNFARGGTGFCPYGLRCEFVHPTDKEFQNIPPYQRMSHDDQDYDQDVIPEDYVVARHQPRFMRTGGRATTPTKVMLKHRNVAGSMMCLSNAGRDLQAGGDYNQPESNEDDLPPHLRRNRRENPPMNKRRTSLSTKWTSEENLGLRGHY

| SMILES | activity score (negative = inhibition of binding) |
| --- | --- |
| COCCNC(=O)Cn1cc(/C=C2\C(=O)NC(=O)N(c3cccc(C)c3C)C2=O)c2ccccc21 | inconclusive: -123% [fluorescent] |
| O=[N+]([O-])c1cc(S(=O)(=O)c2ccc(O)c([N+](=O)[O-])c2)ccc1O | active: -35.7% |
| CCN(CC)C(=O)Cn1cc(C=C2C(=O)N(C)C(=O)N(C)C2=O)c2ccccc21 | inconclusive: -55.4% [fluorescent] |
| c1ccc(C2=NP(N3CCOCC3)(N3CCOCC3)=NC(N3CCOCC3)=N2)cc1 | inactive: -0.817% |
| CCCCCCn1c(O)c(C=Nc2ccccc2N2CCOCC2)c(=O)[nH]c1=S | active: -31.1% |
| COc1cccc(N2C(=O)NC(=O)/C(=C\c3cn(C)c4ccccc34)C2=O)c1 | inconclusive: -54.3% [fluorescent] |
| O=C(/C=C/c1ccc2c(c1)OCO2)c1c(O)n(CCc2ccccc2)c(=O)[nH]c1=O | inconclusive: -102% [fluorescent] |
| CCOC(=O)[C@@]1(C#N)C(c2ccc(Cl)c(Cl)c2)[C@H](C(N)=O)N2C=C(C(C)=O)C=C[C@H]21 (stereo partly drawn) | active: -56.2% |
| O=c1cc(C(F)(F)F)c2cc3c4c(c2o1)CCCN4CCC3 | inconclusive: -83.6% [fluorescent] |
| CN1C(=O)C(=Cc2ccc(N3CCOCC3)o2)C(=O)N(C)C1=O | inconclusive: 75.6% [fluorescent] |
| Cc1cccc(N2C(=O)/C(=C/c3ccc(N4CCN(C)CC4)o3)C(=O)NC2=S)c1C | inconclusive: 66.9% [fluorescent] |
| COC1=CC=C2[C@H]3Cc4ccc(OC)c5c4[C@@]2(CCN3C)[C@H]1O5 | inactive: -0.887% |
| COc1cccc(C2(O)CCN(CC(=O)Nc3nc(C)cs3)CC2)c1 | active: -51.2% |
| Cc1ccccc1N1C(=O)NC(=O)/C(=C/c2ccc(N3CCOCC3)o2)C1=O | inconclusive: 75.9% [fluorescent] |
| Cn1c(=O)c2c(nc(N/N=C/c3c(O)n(-c4ccccc4)c(=S)[nH]c3=O)n2C)n(C)c1=O | inconclusive: -19.1% |
| CCOC(=O)c1cc(CC)sc1/N=C/c1c(O)[nH]c(=S)[nH]c1=O | active: -28.7% |
| Cc1cc(C)cc(-n2c(O)c(C=Nc3ccc(N4CCOCC4)cc3)c(=O)[nH]c2=S)c1 | active: -51.6% |
| COc1cccc(N2C(=O)NC(=O)/C(=C/c3ccc4c(c3)Cc3ccccc3-4)C2=O)c1 | active: -42.8% |
| N#CC(C#N)=NNc1ccc(S(N)(=O)=O)cc1 | inconclusive: -24.9% |

| SMILES | activity score (negative = inhibition of binding) |
| --- | --- |
| O=C1NC(=O)C(=Cc2ccc(-c3ccc(S(=O)(=O)N4CCOCC4)cc3)o2)C(=O)N1 | inconclusive: -16% |
| Cc1cc(C)cc(N2C(=O)NC(=O)/C(=C/c3cccn3-c3ccc(Cl)cc3)C2=O)c1 | inconclusive: -22.2% |
| N=Cc1c(O)n(-c2ccc(C34CC5CC(CC(C5)C3)C4)cc2)c(=O)[nH]c1=O | inactive: 0.463% |
| CN(C)C(=O)Oc1c(Cl)cc(Cl)c2cccnc12 | inactive: 1.94% |
| CCc1nnc(NS(=O)(=O)c2ccc(N=Cc3c(O)n(-c4ccc(Cl)cc4)c(=O)[nH]c3=O)cc2)s1 | active: -27.9% |
| Cc1nc2ccc(N3CCN(C)CC3)cc2nc1C | inconclusive: -23.9% |
| Cc1ccccc1-n1c(O)c(/C=N/NC(=O)c2ccccc2O)c(=O)[nH]c1=S | active: -29% |
| O=c1[nH]c(=O)n(CC2CCCO2)c(O)c1/C=C1\C=Nc2ccccc21 (stereo not drawn) | active: -35.7% |
| CN(C)c1ccc(N=Cc2c(O)n(CCC3=CCCCC3)c(=O)[nH]c2=O)cc1 | active: -63% |
| Cc1ccc(N2C(=O)NC(=O)/C(=C\c3cn(CC(=O)O)c4ccccc34)C2=O)cc1 | inconclusive: -34.9% [fluorescent] |
| CCN1C(=O)NC(=O)/C(=C\c2cn(CC(=O)N3CCCCC3C)c3ccccc23)C1=O (stereo not drawn) | inconclusive: -81.8% [fluorescent] |
| Cc1ccc2cc(C=C(C#N)C#N)c(Cl)nc2c1 | inconclusive: -93.1% [fluorescent] |
| COc1ccc(-n2c(O)c(/C=C/C=Nc3ccccc3)c(=O)[nH]c2=O)cc1 | inconclusive: 84.3% [fluorescent] |
| O=C1NC(=O)C(=Cc2ccc(N3CCOCC3)o2)C(=O)N1 | inconclusive: 61.6% [fluorescent] |
| CCn1nc(-c2ccccc2)nc2c(=O)n(C)c(=O)nc1-2 | inconclusive: -80.5% [fluorescent] |
| CCn1cc(C=C2C(=O)NC(=O)NC2=O)c2ccccc21 | active: -46.3% |
| CN(C)c1ccc(/C=C/[N+](=O)[O-])cc1 | inconclusive: -14.8% |
| COCCCNC(=O)Cn1cc(/C=C2\C(=O)NC(=O)N(c3ccccc3F)C2=O)c2ccccc21 | inconclusive: -92.6% [fluorescent] |
| O=c1[nH]c(=O)n(-c2cccc(F)c2)c(O)c1/C=C1\C=Nc2ccccc21 | inconclusive: -24.8% |

— PubChem BioAssay AID1832 (Broad Institute, 2009)
